Hit rate of the full screen: of about 45,000 compounds, about 200 (0.44%) were called active. Not shown: some 7% with an inconclusive outcome. Calls follow the shape of the dose curve; as a rule, active = well fitted activation curve with a large enough effect; inconclusive = small, poorly fitted or top-dose-only effect; inactive = no such curve, though single readings can be large or run the other way. Some of the results follow.
assay: qHTS of TDP-43 Inhibitors: NCGC Sytravon Library Screen; conditions: yeast TDP-43 toxicity rescue, BacTiter-Glo growth, 24 h; at 46.1 µM (top of the series); also: 0% is about no effect; nearly all actives have a fitted effect of over 55% in size
Procedure, shortened: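 TDP-43-expressing yeast, pregrown in raffinose, seeded at OD600 0.02 in galactose medium with compound for 24 hr at 30 deg C. Growth read by BacTiter-Glo luminescence, so rescue of toxicity appears as activation.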

Row | SMILES | growth rescue (activation)
1 | CCOc1cc2c(cc1OCC)-n1cccc1C(c1ccc(C)cc1C)NC2 (stereo not given) | inactive: 12.9%
2 | Cc1cccc(CN2CCCC(C(=O)c3ccc4c(c3)OCO4)C2)n1 (stereo not given) | inactive: 10%
3 | O=C(Cc1ccccc1)Oc1cccc(N2C(=O)CCC2=O)c1 | inactive: 14.1%
4 | CC1CCC/C=C/C2CC(O)CC2C(O)/C=C/C(=O)O1 (stereo not given) | inactive: 14.3%
5 | CC1N=C(c2ccccc2)c2cc(Br)ccc2NC1=O (stereo not given) | inactive: -21.8%
6 | CC/C(=N\Nc1cccc2ccccc12)c1c(O)[nH]c(=O)[nH]c1=O | inactive: -10.1%
7 | Cc1c2cnn(CC(=O)N3CCC4(CC3)OCCO4)c(=O)c2c(C)n1Cc1ccc(F)cc1 | inactive: -21.6%
8 | COCCNC(=O)CN1C(=O)CN=C(c2ccccc2)c2ccccc21 | inactive: 7.48%
9 | CCOc1ccc(N2C(=O)NC(=O)/C(=C/c3cnc(SC)nc3)C2=O)cc1 | inactive: 4.17%
10 | Cc1cc(C)cc(-n2c(C)cc(/C=C3\C(=O)NC(=O)N(C)C3=O)c2C)c1 | inactive: 14.4%
11 | CCc1cc2c(s1)N(CC(=O)OC)C(=O)CN=C2c1ccccc1OC | inactive: -0.688%
12 | CCC(C)n1c(O)c(C=NCc2cccnc2)c(=O)[nH]c1=S (stereo not given) | inactive: 5.58%
13 | CN1C(=O)N(C)C(=O)C2(Cc3cc(NC(=O)c4ccc(F)cc4)ccc3N3CCCC32)C1=O (stereo not given) | inactive: -0.491%
14 | O=C1C2CCCC1C(N1CCCC1)CC2 (stereo not given) | inactive: -6.33%
15 | Cc1ccc(OCC(=O)N2CCN(Cc3ccc(F)cc3)CC2)cc1 | inactive: 9.05%
16 | O=c1[nH]c(=O)n(Cc2ccccc2)c(O)c1/C=C1\C=Nc2ccccc21 | inactive: -5.21%
17 | COc1cccc(-n2c(/C=C\c3ccc(Cl)cc3)nc3ccccc3c2=O)c1 | inactive: -8.68%
18 | Cc1cccc(NP(C)(=O)c2nc3c(s2)CCCC3)c1 (stereo not given) | inactive: 7.72%
19 | C=C(c1ccccc1)P(=O)(O)O | inactive: -0.129%
20 | Oc1cc2c(cc1CN1CCN(c3ccccc3F)CC1)OCO2 | inactive: -8.12%

Row | SMILES | growth rescue (activation)
21 | C=CCn1c(O)c(C=NCCCn2ccnc2)c(=O)[nH]c1=O | inactive: 0.126%
22 | CN1C(=O)C(=Cc2cn(CC#N)c3ccccc23)C(=O)N(C)C1=O | inactive: 2.1%
23 | N#Cc1ccc(NC(=O)CCNC(=O)c2ccco2)cc1Cl | inactive: -7.16%
24 | CCCNC(=O)N1CCC2(CC1)OCCO2 | inactive: -9.85%
25 | Cc1ccc(N2C(=O)NC(=O)/C(=C\c3cnc(-c4ccccc4)nc3)C2=O)cc1 | inactive: -6.02%
26 | CCn1cc(CN2CCCC(C(=O)c3sccc3C)C2)cn1 (stereo not given) | inactive: -7.5%
27 | Cc1ccc[n+](CC(O)Cn2c3ccccc3c3ccccc32)c1 (stereo not given) | inactive: -13.8%
28 | OC(c1ccncc1)(c1ccc(F)cc1)c1ccc(F)cc1 | inactive: 11.9%
29 | CCCNS(=O)(=O)c1ccc(OCC(=O)N2CCN(Cc3ccc4c(c3)OCO4)CC2)c(C)c1 | inactive: -26.5%
30 | COc1ccc(OCC#CCN2CCCCCC2)cc1 | inactive: -5.45%
31 | O=C1NC(=O)N(Cc2ccco2)C(=O)/C1=C\c1cccn1CCOc1ccccc1 | inactive: 1.06%
32 | C[C@]12CCC3C(C(=O)C[C@H]4C[C@@H](O)CC[C@]34C)C1CCC2=O (stereo not given in full) | inactive: -1.87%
33 | CCC(=NCc1ccco1)c1c(O)n(-c2ccccc2C)c(=O)[nH]c1=O | inactive: -10.1%
34 | CC(C)Oc1cccc(C(=O)C2CCCN(C3CCOCC3)C2)c1 (stereo not given) | inactive: 2.08%
35 | O=C(Cc1ccccc1)N1CCN(C/C=C/c2ccccc2)CC1 | inactive: 5.11%
36 | C[N+]1(CC(COCc2ccccc2)OC(=O)Cc2ccccc2)CCOCC1 (stereo not given) | inactive: -10.1%
37 | C[C@]12CC[C@H](O)CC1=CCC1C2CC[C@@]2(C)C1C[C@@H]1CC(=O)O[C@@H]12 (stereo not given in full) | inactive: 5.61%
38 | CCCc1nc2ccccc2c(=O)n1-c1ccc(O)cc1 | inactive: -15.1%
39 | C=Cn1ccnc1P(O)(=S)c1nc(C)c(CCOC(C)=O)s1 (stereo not given) | inactive: 11.6%
40 | Nc1c2c(nc3sc4c(c13)CCCCC4)CCCC2 | inactive: 8.36%

Row | SMILES | growth rescue (activation)
41 | C#CC(CC)(CC)NC(=O)Nc1ccc(OCC)cc1 | inactive: 4.65%
42 | C/C(=N\N1CCCCCC1)c1c(O)n(-c2ccccc2)c(=O)[nH]c1=O | inactive: -16%
43 | COc1ccc(Cc2c(O)[nH]c(=O)[nH]c2=O)c(OC)c1 | inactive: 10.1%
44 | CNC(=S)N1CC2CC(C1)c1cccc(=O)n1C2 (stereo not given) | inactive: -13.6%
45 | O=C1NC(=S)NC(=O)C12C(c1ccccc1)NC(=S)NC2c1ccccc1 (stereo not given) | inactive: -0.971%
46 | c1ccc2c3c(ccc2c1)OCC1CONC31 (stereo not given) | inactive: 8.63%
47 | COc1ccc(-n2nc(C(=O)NCC(=O)N3CCC4(CC3)OCCO4)c3ccccc3c2=O)cc1Cl | inactive: 22.2%
48 | O=c1[nH]c(=O)n(C2CCCCC2)c(O)c1/C=C/C=Nc1ccccc1 | inactive: 11.1%
49 | C[C@]12CCC3C(C1CCC2=O)[C@H](O)C[C@H]1C[C@@H](O)CC[C@]31C (stereo not given in full) | inactive: 19.7%
50 | O=C1NC(=O)C(CCc2ccncc2)(Cc2ccc([N+](=O)[O-])cc2)C(=O)N1 | inactive: 6.68%
51 | CC(=O)c1ccc(OC(=O)N(C)c2ccccc2)cc1 | inactive: 15.7%
52 | O=C(Cc1ccccc1)N1CCN(C2CCCCCC2)CC1 | inactive: -5.99%
53 | Cc1cc(N2CCCCC2)ccc1C=C1C(=O)N(C)C(=S)N(C)C1=O | inactive: 13.6%
54 | COc1ccccc1-n1c(-c2ccc(C)cc2)nc2ccccc2c1=O | inactive: 7.76%
55 | CC1=CC(=C2C(=O)NC(=O)NC2=O)C=C(C(F)(F)F)N1Cc1ccccc1 | inactive: 1.37%
56 | O=C(c1ccc(Cl)cc1)C1CCCN(C2CCSCC2)C1 (stereo not given) | inactive: 9.44%
57 | CN1OC[C@@H]2COc3ccc4ccccc4c3[C@@H]21 | inactive: 6.52%
58 | Cc1ccccc1-n1c(O)c(/C=N/c2nccs2)c(=O)[nH]c1=O | inactive: 2.66%
59 | CC1CN2c3ccc([N+](=O)[O-])cc3CC3(C(=O)N(C)C(=O)N(C)C3=O)C2C(C)O1 (stereo not given) | inactive: 1.18%
60 | Cc1ccc(S(=O)(=O)NC(Cc2cnc[nH]2)C(=O)O)cc1 (stereo not given) | inactive: 5.44%

From PubChem BioAssay AID1347073 (National Center for Advancing Translational Sciences (NCATS), 2019)
